# Results: the supplement of paper PMC8728848
# Some of the results follow.
# B1: B725 (Bifidobacterium sp) (protein)
# chain: MNNTTRAVIATAAIGALLIPLAGCGNTTTSSGKTELTVWSWDASIDRAAKSFMKANPDITVKVSNVGSTEETYTALNNAAQAGSGLPDVTLIEYLAIPQFVHSDTLMDLSKVYNTAKLKDTFTPGTWNSVNINGGLYAMPADSGPMAYFYDKDVFDKAGISEPPTTWDEFYEDAKKIRATGSYITSDSGDAGLFNAMMWAMGGHAYKLNDDKLTINIAKDKGAQRFMDLWQKMRDEDLIDVHTKTWTDDWMKSLGDGSIASLISGAWMANNLLQGVPQATGKFRVALLPTIDGTPINGEYGGSGLAITKKIPDGKLDAAKKFVEYVTTNDEGIDARVSNGSFPATTKTLNQKDFLAKTTLRNTDGSDNEFFGGQKYNEIFSQAAKDVTGKWEFLPFEPYARSVYNDNMGSFFAGKTSFRTAADNWQKALKDYAKDQGFTVQ
# What was measured:
# Assay in all cases: glycan array binding signal (z-score within array); higher = stronger binding
# Conditions in all cases: glycan notation: IUPAC condensed, linker removed
# [1] = molecular target: Fuc(a1-3)[Gal3S(b1-4)]GlcNAc6S
# How it was run: (§1)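 The binding signal is a Z-score computed within each array and averaged over linkers. Arrays of the same protein sequence at different concentrations or buffers were also averaged together. Data originate from 3228 arrays in the Consortium for Functional Glycomics database, kept only where the protein sequence was available.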
# [2] = molecular target: Fuc(a1-3)[GalNAc(b1-4)]GlcNAc
# How it was run: as §1
# [3] = molecular target: Fuc(a1-3)[GalNAc(b1-4)]GlcNAc6S
# How it was run: as §1
# [4] = molecular target: Fuc(a1-4)GlcNAc
# How it was run: as §1
# [5] = molecular target: Fuc(b1-3)GlcNAc
# How it was run: as §1
# [6] = molecular target: Gal(a1-2)Gal
# How it was run: as §1
# [7] = molecular target: Gal(a1-3)Gal
# How it was run: as §1
# [8] = molecular target: Gal(a1-3)Gal(b1-3)GlcNAc
# How it was run: as §1
# [9] = molecular target: Gal(a1-3)Gal(b1-3)GlcNAc(b1-2)Man
# How it was run: as §1
# [10] = molecular target: Gal(a1-3)Gal(b1-3)GlcNAc(b1-2)Man(a1-3)[Gal(a1-3)Gal(b1-3)GlcNAc(b1-2)Man(a1-6)]Man(b1-4)GlcNAc(b1-4)GlcNAc
# How it was run: as §1
# [11] = molecular target: Gal(a1-3)Gal(b1-3)GlcNAc(b1-3)GalNAc
# How it was run: as §1
# [12] = molecular target: Gal(a1-3)Gal(b1-3)GlcNAc(b1-6)GalNAc
# How it was run: as §1
# [13] = molecular target: Gal(a1-3)Gal(b1-3)[Fuc(a1-4)]GlcNAc(b1-2)Man(a1-3)[Gal(a1-3)Gal(b1-3)[Fuc(a1-4)]GlcNAc(b1-2)Man(a1-6)]Man(b1-4)GlcNAc(b1-4)GlcNAc
# How it was run: as §1
# [14] = molecular target: Gal(a1-3)Gal(b1-4)Glc
# How it was run: as §1
# [15] = molecular target: Gal(a1-3)Gal(b1-4)GlcNAc
# How it was run: as §1
# [16] = molecular target: Gal(a1-3)Gal(b1-4)GlcNAc(b1-2)Man
# How it was run: as §1
# [17] = molecular target: Gal(a1-3)Gal(b1-4)GlcNAc(b1-2)Man(a1-3)[Gal(a1-3)Gal(b1-4)GlcNAc(b1-2)Man(a1-6)]Man(b1-4)GlcNAc(b1-4)GlcNAc
# How it was run: as §1
# [18] = molecular target: Gal(a1-3)Gal(b1-4)GlcNAc(b1-3)GalNAc
# How it was run: as §1
# [19] = molecular target: Gal(a1-3)Gal(b1-4)GlcNAc(b1-6)GalNAc
# How it was run: as §1
# [20] = molecular target: Gal(a1-3)Gal(b1-4)[Fuc(a1-3)]GlcNAc
# How it was run: as §1
# [21] = molecular target: Gal(a1-3)Gal(b1-4)[Fuc(a1-3)]GlcNAc(b1-2)Man(a1-3)[Gal(a1-3)Gal(b1-4)[Fuc(a1-3)]GlcNAc(b1-2)Man(a1-6)]Man(b1-4)GlcNAc(b1-4)GlcNAc
# How it was run: as §1
# [22] = molecular target: Gal(a1-3)GalNAc
# How it was run: as §1
# [23] = molecular target: Gal(a1-3)[Gal(a1-4)]Gal(b1-4)GlcNAc
# How it was run: as §1
# [24] = molecular target: Gal(a1-4)Gal(b1-3)GlcNAc(b1-2)Man(a1-3)[Gal(a1-4)Gal(b1-3)GlcNAc(b1-2)Man(a1-6)]Man(b1-4)GlcNAc(b1-4)GlcNAc
# How it was run: as §1
# [25] = molecular target: Gal(a1-4)Gal(b1-4)Glc
# How it was run: as §1
# [26] = molecular target: Gal(a1-4)Gal(b1-4)GlcNAc
# How it was run: as §1
# [27] = molecular target: Gal(a1-4)Gal(b1-4)GlcNAc(b1-2)Man(a1-3)[Gal(a1-4)Gal(b1-4)GlcNAc(b1-2)Man(a1-6)]Man(b1-4)GlcNAc(b1-4)GlcNAc
# How it was run: as §1
# [28] = molecular target: Gal(a1-4)Gal(b1-4)GlcNAc(b1-3)Gal(b1-4)Glc
# How it was run: as §1
# [29] = molecular target: Gal(a1-4)GlcNAc
# How it was run: as §1
# [30] = molecular target: Gal(a1-6)Glc
# How it was run: as §1
# [31] = molecular target: Gal(b1-2)Gal
# How it was run: as §1
# [32] = molecular target: Gal(b1-3)Gal
# How it was run: as §1
# [33] = molecular target: Gal(b1-3)Gal(b1-4)GlcNAc
# How it was run: as §1
# [34] = molecular target: Gal(b1-3)GalNAc
# How it was run: as §1
# [35] = molecular target: Gal(b1-3)GalNAc(a1-3)[Fuc(a1-2)]Gal(b1-4)Glc
# How it was run: as §1
# [36] = molecular target: Gal(b1-3)GalNAc(a1-3)[Fuc(a1-2)]Gal(b1-4)GlcNAc
# How it was run: as §1
# [37] = molecular target: Gal(b1-3)GalNAc(b1-3)Gal
# How it was run: as §1
binder,measurement,setting,value
B1,glycan array binding signal (z-score),[1],-0.2
same,glycan array binding signal (z-score),[2],-0.205
same,glycan array binding signal (z-score),[3],-0.229
same,glycan array binding signal (z-score),[4],-0.228
same,glycan array binding signal (z-score),[5],-0.226
same,glycan array binding signal (z-score),[6],-0.225
same,glycan array binding signal (z-score),[7],-0.225
same,glycan array binding signal (z-score),[8],-0.21
same,glycan array binding signal (z-score),[9],-0.205
same,glycan array binding signal (z-score),[10],-0.212
same,glycan array binding signal (z-score),[11],-0.205
same,glycan array binding signal (z-score),[12],-0.206
same,glycan array binding signal (z-score),[13],-0.181
same,glycan array binding signal (z-score),[14],-0.201
same,glycan array binding signal (z-score),[15],-0.227
same,glycan array binding signal (z-score),[16],-0.214
same,glycan array binding signal (z-score),[17],-0.195
same,glycan array binding signal (z-score),[18],-0.225
same,glycan array binding signal (z-score),[19],-0.219
same,glycan array binding signal (z-score),[20],-0.225
same,glycan array binding signal (z-score),[21],-0.192
same,glycan array binding signal (z-score),[22],-0.22
same,glycan array binding signal (z-score),[23],-0.195
same,glycan array binding signal (z-score),[24],-0.2
same,glycan array binding signal (z-score),[25],-0.205
same,glycan array binding signal (z-score),[26],-0.217
same,glycan array binding signal (z-score),[27],-0.156
same,glycan array binding signal (z-score),[28],0.277
same,glycan array binding signal (z-score),[29],-0.214
same,glycan array binding signal (z-score),[30],-0.232
same,glycan array binding signal (z-score),[31],-0.224
same,glycan array binding signal (z-score),[32],-0.201
same,glycan array binding signal (z-score),[33],-0.214
same,glycan array binding signal (z-score),[34],-0.207
same,glycan array binding signal (z-score),[35],-0.157
same,glycan array binding signal (z-score),[36],-0.218
same,glycan array binding signal (z-score),[37],-0.164
